The results in this text go back to PMC2828323 (Current biology : CB, 2009).

The test addresses T1, full-length 6His-Syp1 (S. cerevisiae, UniProt P25623 1-870).
T1 sequence (looked up): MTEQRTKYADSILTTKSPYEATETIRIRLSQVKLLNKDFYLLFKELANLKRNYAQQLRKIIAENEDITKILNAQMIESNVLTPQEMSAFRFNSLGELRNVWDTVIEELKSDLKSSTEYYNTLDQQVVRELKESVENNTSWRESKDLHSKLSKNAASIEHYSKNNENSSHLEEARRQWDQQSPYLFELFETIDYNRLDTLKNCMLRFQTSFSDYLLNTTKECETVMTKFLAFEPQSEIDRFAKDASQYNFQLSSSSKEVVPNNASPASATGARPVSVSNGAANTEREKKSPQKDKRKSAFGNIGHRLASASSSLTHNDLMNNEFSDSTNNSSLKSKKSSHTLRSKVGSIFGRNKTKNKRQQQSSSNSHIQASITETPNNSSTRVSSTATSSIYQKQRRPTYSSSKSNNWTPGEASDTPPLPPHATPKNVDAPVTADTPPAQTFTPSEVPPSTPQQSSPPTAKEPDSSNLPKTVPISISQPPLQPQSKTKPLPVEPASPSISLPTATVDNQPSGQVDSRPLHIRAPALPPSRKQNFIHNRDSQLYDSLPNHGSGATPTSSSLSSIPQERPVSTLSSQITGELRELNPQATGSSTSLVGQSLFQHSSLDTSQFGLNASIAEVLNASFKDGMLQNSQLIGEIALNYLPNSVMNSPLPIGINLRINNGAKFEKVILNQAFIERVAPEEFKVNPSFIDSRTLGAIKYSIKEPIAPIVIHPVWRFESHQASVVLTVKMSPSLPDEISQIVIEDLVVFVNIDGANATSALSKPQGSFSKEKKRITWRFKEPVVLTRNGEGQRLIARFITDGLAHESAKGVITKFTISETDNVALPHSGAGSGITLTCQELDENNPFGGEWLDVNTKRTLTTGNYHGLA
Kind of test: pull-down.

B1: full-length Las17/WASp (natural protein)
chain: not shown
B1: the binding result was “binds”.
